Source: the supplement of paper PMC3334620
Whole data set: some 33,000 sequences, median “E-score (-0.5 to 0.5)” near -0.032, cut for the highest 2% near 0.36. Some of the results follow.

Biological target: T1, Sko1 (UniProt Q02100)
T1 sequence: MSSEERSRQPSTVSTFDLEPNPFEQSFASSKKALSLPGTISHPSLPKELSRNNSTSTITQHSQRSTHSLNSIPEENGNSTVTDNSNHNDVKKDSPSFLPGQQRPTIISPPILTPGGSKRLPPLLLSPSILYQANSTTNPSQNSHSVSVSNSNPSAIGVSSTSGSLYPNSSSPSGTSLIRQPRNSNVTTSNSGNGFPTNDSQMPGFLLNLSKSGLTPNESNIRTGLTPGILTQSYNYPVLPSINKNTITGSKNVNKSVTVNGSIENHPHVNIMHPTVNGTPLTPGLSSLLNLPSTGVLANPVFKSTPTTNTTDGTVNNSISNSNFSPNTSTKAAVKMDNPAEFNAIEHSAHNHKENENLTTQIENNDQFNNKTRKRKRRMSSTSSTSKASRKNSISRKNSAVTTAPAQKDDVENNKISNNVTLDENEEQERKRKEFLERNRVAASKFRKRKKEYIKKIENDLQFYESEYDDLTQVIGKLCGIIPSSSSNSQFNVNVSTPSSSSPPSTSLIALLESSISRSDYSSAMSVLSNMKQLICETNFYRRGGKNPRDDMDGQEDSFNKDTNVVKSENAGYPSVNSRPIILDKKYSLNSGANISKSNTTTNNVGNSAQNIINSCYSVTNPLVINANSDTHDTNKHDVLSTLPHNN
Assay: PBM E-score (8-mer binding enrichment) (E-score (-0.5 to 0.5)); higher = stronger / more preferred TF binding; most listed sequences are background and not binding sites
Details: protein concentration: 200 nM; construct: GST-full length
Method in brief: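 Detection of bound protein used fluorescent anti-GST, with scans normalised by masliner. The proteins were GST-tagged yeast transcription factors applied at about 100-200 nM to universal all-10-mer Agilent arrays made double-stranded by primer extension. Each ungapped eight-base word, pooled with its reverse complement, was scored with an E-score from the Universal PBM Analysis Suite.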

**Q.** Which “PBM E-score” value does the source give for TTCGCGAA here?
**A.** 0.222

**Q.** With CGGAAAGC as the sequence, how does the “PBM E-score” value read?
**A.** -0.0178

**Q.** ATCTGCCC was tested. Which “PBM E-score” value did it give?
**A.** -0.184

**Q.** For AAACTTAG, which “PBM E-score” value is on record?
**A.** -0.0514

**Q.** Which “PBM E-score” value does the source give for TCGATACA here?
**A.** 0.177

**Q.** Which “PBM E-score” value does the source give for ACTAGCAC here?
**A.** -0.0326

**Q.** CCGGTGAC was tested. Which “PBM E-score” value did it give?
**A.** 0.147

**Q.** Which “PBM E-score” value does the source give for CTCCGATA here?
**A.** -0.256

**Q.** How did the “PBM E-score” value turn out when AGTTGTAA was run?
**A.** 0.0597

**Q.** Which “PBM E-score” value does the source give for ATTTTATA here?
**A.** 0.223

**Q.** AGCAATGG was tested. Which “PBM E-score” value did it give?
**A.** -0.217

**Q.** GCTTCTAC was tested. Which “PBM E-score” value did it give?
**A.** -0.08

**Q.** Which “PBM E-score” value does the source give for GACCAGTC here?
**A.** -0.25

**Q.** How did the “PBM E-score” value turn out when ATGGTGAG was run?
**A.** 0.0843

**Q.** For AGGACAGA, which “PBM E-score” value is on record?
**A.** -0.196

**Q.** CTTGAATA was tested. Which “PBM E-score” value did it give?
**A.** 0.0831

**Q.** CCTCCCAA was tested. Which “PBM E-score” value did it give?
**A.** -0.196

**Q.** For GGAGGAGA, which “PBM E-score” value is on record?
**A.** -0.261

**Q.** With CAAATTGC as the sequence, how does the “PBM E-score” value read?
**A.** 0.0668

**Q.** For ACGCTGCT, which “PBM E-score” value is on record?
**A.** -0.116

**Q.** Which “PBM E-score” value does the source give for GAACTAGA here?
**A.** 0.0254

**Q.** ATATGCTA was tested. Which “PBM E-score” value did it give?
**A.** 0.066

**Q.** GCAAATAA was tested. Which “PBM E-score” value did it give?
**A.** 0.129

**Q.** For CGTCTCTA, which “PBM E-score” value is on record?
**A.** 0.00942

**Q.** How did the “PBM E-score” value turn out when AACCTTCG was run?
**A.** 0.0377

**Q.** How did the “PBM E-score” value turn out when AACCGTCA was run?
**A.** 0.0476

**Q.** CTGGCGAC was tested. Which “PBM E-score” value did it give?
**A.** -0.284

**Q.** For TTGTCAAA, which “PBM E-score” value is on record?
**A.** 0.0922

**Q.** How did the “PBM E-score” value turn out when GTACTCAC was run?
**A.** -0.00043

**Q.** With AAGTAAAG as the sequence, how does the “PBM E-score” value read?
**A.** -0.152

**Q.** How did the “PBM E-score” value turn out when TAGGTAGA was run?
**A.** -0.006

**Q.** For CCTTCAAA, which “PBM E-score” value is on record?
**A.** -0.0268

**Q.** Which “PBM E-score” value does the source give for ATTCCCAG here?
**A.** -0.072

**Q.** With CTGAGATA as the sequence, how does the “PBM E-score” value read?
**A.** 0.0643

**Q.** ACTGAGCT was tested. Which “PBM E-score” value did it give?
**A.** -0.115

**Q.** With AAAGACTT as the sequence, how does the “PBM E-score” value read?
**A.** 0.0404

**Q.** Which “PBM E-score” value does the source give for GTCAATGA here?
**A.** 0.181

**Q.** How did the “PBM E-score” value turn out when AAAATGCG was run?
**A.** 0.178

**Q.** With CAAGGCGC as the sequence, how does the “PBM E-score” value read?
**A.** -0.374

**Q.** How did the “PBM E-score” value turn out when GGGAAAGA was run?
**A.** -0.119

**Q.** With GGGTGCAA as the sequence, how does the “PBM E-score” value read?
**A.** -0.181

**Q.** For TAAAGATA, which “PBM E-score” value is on record?
**A.** 0.147

**Q.** With CTTCACTA as the sequence, how does the “PBM E-score” value read?
**A.** 0.0319

**Q.** TAGTGCCA was tested. Which “PBM E-score” value did it give?
**A.** -0.107

**Q.** For ACGCTAGA, which “PBM E-score” value is on record?
**A.** -0.104

**Q.** Which “PBM E-score” value does the source give for ACCGAGGA here?
**A.** -0.0663

**Q.** Which “PBM E-score” value does the source give for AGTATGTA here?
**A.** 0.0841

**Q.** Which “PBM E-score” value does the source give for ATCAAGTA here?
**A.** 0.0281

**Q.** Which “PBM E-score” value does the source give for TAGTAAAA here?
**A.** 0.197

**Q.** With ACAATCTG as the sequence, how does the “PBM E-score” value read?
**A.** 0.00099

**Q.** CCATACGA was tested. Which “PBM E-score” value did it give?
**A.** 0.14

**Q.** Which “PBM E-score” value does the source give for AAGCAGTC here?
**A.** -0.178

**Q.** Which “PBM E-score” value does the source give for TATCCTAA here?
**A.** 0.0605

**Q.** ACACCGGC was tested. Which “PBM E-score” value did it give?
**A.** -0.183

**Q.** With CGACTGTA as the sequence, how does the “PBM E-score” value read?
**A.** -0.104

**Q.** For GAATTGCA, which “PBM E-score” value is on record?
**A.** -0.04

**Q.** How did the “PBM E-score” value turn out when CCAGCTCC was run?
**A.** -0.39

**Q.** With ATACCTAC as the sequence, how does the “PBM E-score” value read?
**A.** 0.126

**Q.** With ACTCGAAC as the sequence, how does the “PBM E-score” value read?
**A.** 0.111

**Q.** For GATGACCC, which “PBM E-score” value is on record?
**A.** -0.0957

**Q.** AGACTGCG was tested. Which “PBM E-score” value did it give?
**A.** -0.017

**Q.** How did the “PBM E-score” value turn out when CTATGGAG was run?
**A.** -0.156

**Q.** TATTCTGA was tested. Which “PBM E-score” value did it give?
**A.** -0.00141

**Q.** For AAGTTTAC, which “PBM E-score” value is on record?
**A.** 0.251

**Q.** With ATAGTTTA as the sequence, how does the “PBM E-score” value read?
**A.** 0.0815

**Q.** Which “PBM E-score” value does the source give for CTAGACGA here?
**A.** -0.0315

**Q.** GCTTGAGA was tested. Which “PBM E-score” value did it give?
**A.** -0.0643

**Q.** For AGTACGGC, which “PBM E-score” value is on record?
**A.** -0.101

**Q.** Which “PBM E-score” value does the source give for AGACTGGG here?
**A.** -0.231

**Q.** Which “PBM E-score” value does the source give for ACACCGGG here?
**A.** -0.289

**Q.** ATATCAAG was tested. Which “PBM E-score” value did it give?
**A.** 0.177

**Q.** For ATAAAGCA, which “PBM E-score” value is on record?
**A.** -0.0086

**Q.** Which “PBM E-score” value does the source give for AGATGTAA here?
**A.** 0.256

**Q.** With CCCCTGAG as the sequence, how does the “PBM E-score” value read?
**A.** -0.276

**Q.** CATACAGG was tested. Which “PBM E-score” value did it give?
**A.** -0.0277

**Q.** Which “PBM E-score” value does the source give for ACTGAGGG here?
**A.** -0.146

**Q.** Which “PBM E-score” value does the source give for CTATCATC here?
**A.** 0.0137

**Q.** Which “PBM E-score” value does the source give for CGGTCCAA here?
**A.** -0.253

**Q.** Which “PBM E-score” value does the source give for AGGAACTA here?
**A.** 0.00161

**Q.** Which “PBM E-score” value does the source give for ATAGGAAG here?
**A.** -0.108

**Q.** How did the “PBM E-score” value turn out when ATGCCAGG was run?
**A.** -0.34

**Q.** How did the “PBM E-score” value turn out when CGTGATCA was run?
**A.** 0.241

**Q.** How did the “PBM E-score” value turn out when AATCGTTA was run?
**A.** 0.23

**Q.** TCCACGGA was tested. Which “PBM E-score” value did it give?
**A.** 0.0142

**Q.** ATATGCCC was tested. Which “PBM E-score” value did it give?
**A.** -0.186

**Q.** Which “PBM E-score” value does the source give for GGCGCTGA here?
**A.** -0.119

**Q.** With ATCATGGC as the sequence, how does the “PBM E-score” value read?
**A.** -0.00549

**Q.** With ACATGTCG as the sequence, how does the “PBM E-score” value read?
**A.** 0.0769

**Q.** For GTTTTCAA, which “PBM E-score” value is on record?
**A.** 0.182

**Q.** How did the “PBM E-score” value turn out when GGAGCATA was run?
**A.** -0.0066

**Q.** ACTTGGTC was tested. Which “PBM E-score” value did it give?
**A.** -0.0114

**Q.** Which “PBM E-score” value does the source give for ACTATGGG here?
**A.** -0.125

**Q.** Which “PBM E-score” value does the source give for CCGCCACG here?
**A.** 0.00095

**Q.** For CACCGTTC, which “PBM E-score” value is on record?
**A.** -0.142
